Data: patent US20230265179A1

B1: CD40L-368 (antibody, V domains shown)
VH: [about 100 residues not written out]ERGDYYYYGMDVWGQGTLVTVSS
VL: DIQMTQSPSSLSASVGDRVTITCRASQSIGTFLNWYQQKPGKAPKLLIYGTSNLQSGVPSRFSGSGSGTDFTLTISSLQPEDFATYYCQQGYRTPLTFGGGTKVEIK
B2: CD40L-422 (antibody, V domains shown)
VH: [about 100 residues not written out]ERGDYYYYGMDVWGQGTLVTVSS
VL: B1 VL with I29V, G30S, T31R, G50A, T51A, N53T, S56P, G91S, R93E
B3: CD40L-405 (antibody, V domains shown)
VH: [about 100 residues not written out]ERGDYYYYGMDVWGQGTLVTVSS
VL: B1 VL with S14Y, T31I, F32H, T51A, N53R, S56T, G91S, R93S, T94A

What follows are binders tested against CD40L (UniProt P29965) (assay: flow cytometry, 100 nM IgG, CD40L over-expressing Expi293 cells over parent Expi293 cells).
UniProt P29965, sequence (P29965 whole entry): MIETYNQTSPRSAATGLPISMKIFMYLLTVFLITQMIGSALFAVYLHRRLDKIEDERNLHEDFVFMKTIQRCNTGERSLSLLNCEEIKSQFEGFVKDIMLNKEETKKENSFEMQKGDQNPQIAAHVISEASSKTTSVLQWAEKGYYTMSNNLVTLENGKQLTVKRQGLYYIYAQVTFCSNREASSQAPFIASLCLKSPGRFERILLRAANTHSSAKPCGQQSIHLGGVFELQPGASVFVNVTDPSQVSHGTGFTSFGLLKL

| 100 nM FACS (MFI Ratio) | Binder |
| --- | --- |
| 1.9 MFI ratio | B1 |
| 1.8 MFI ratio | B2 |
| 1.8 MFI ratio | B3 |

Residue numbers refer to the chain shown, from its start.
